# Reference: PubChem BioAssay AID624417 (National Center for Advancing Translational Sciences (NCATS), 2012)
# The whole screen tested about 410,000 compounds, of which about 6,400 (1.6%) were called active. The inconclusive results got no clear call from the source; some entries with a clear call stand among them for comparison. Calls come from the whole dose curve; as a rule, active = well fitted inhibition curve with a large enough effect; inconclusive = small, poorly fitted or top-dose-only effect; inactive = no such curve, though single readings can be large or run the other way. No potency is given beside an inconclusive call; the fits are too rough.
# Biological target: Glucagon-like peptide 1 receptor (Homo sapiens) (UniProt P43220)
# Sequence of UniProt P43220 (P43220 whole entry, looked up): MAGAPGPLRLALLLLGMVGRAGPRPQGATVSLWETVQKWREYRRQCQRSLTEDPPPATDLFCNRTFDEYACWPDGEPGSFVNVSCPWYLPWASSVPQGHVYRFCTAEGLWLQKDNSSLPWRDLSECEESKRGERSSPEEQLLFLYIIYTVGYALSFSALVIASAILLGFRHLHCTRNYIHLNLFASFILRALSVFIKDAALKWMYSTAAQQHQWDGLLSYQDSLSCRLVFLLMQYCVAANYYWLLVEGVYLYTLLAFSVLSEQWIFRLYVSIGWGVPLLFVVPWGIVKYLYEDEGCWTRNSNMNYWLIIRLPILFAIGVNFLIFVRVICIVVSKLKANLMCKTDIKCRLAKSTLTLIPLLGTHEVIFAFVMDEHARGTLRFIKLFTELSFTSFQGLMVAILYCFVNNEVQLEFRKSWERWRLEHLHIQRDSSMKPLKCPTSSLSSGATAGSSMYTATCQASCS
# Assay: qHTS of GLP-1 Receptor Inverse Agonists (Inhibition Mode); note: nearly all actives have a fitted effect of over 55% in size
# Details: HEK293 GLP-1R CRE-luciferase, luminescence, 24 h, GLP-1R form is constitutively active; activity change, negative = inhibition: at 38.3 µM (top of the series) unless noted
# Procedure, shortened: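 GLP-1R inverse agonism mode: basal reporter luminescence in engineered HEK293 cells measured after one day of compound exposure at 37 deg C, with a 12 min room-temperature detection step.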
# % is set by controls: 0 for no effect and ±100 for the full control effect; potency is the fitted concentration of half-maximal effect; tags give direction and shape of the fitted curve.
SMILES,Potency,"activity change, negative = inhibition"
O=C(C1=C(O)C(=O)N(CCN2CCOCC2)C1c1cccc([N+](=O)[O-])c1)c1cccs1 (configuration not stated),inactive,–
Cn1cccc1CC(=O)N/N=C\c1c2ccccc2cc2ccccc12,"inconclusive [inhibitor, single point]",–
COc1ccc(Br)cc1/C=C/C(=O)Nc1ccc(C)cc1,active: 4.47 µM,–
Cc1cc(C(F)(F)F)nn1CC(=O)Nc1cccnc1,inactive,–
O=[N+]([O-])c1cccc(S(=O)(=O)NCCc2cccs2)c1,"inconclusive [inhibitor, single point]",–
CC(c1ccon1)N(C)Cc1cn(C)nc1-c1cccc(Cl)c1 (configuration not stated),"inconclusive [inhibitor, partial curve, poor fit]",–
Cc1cc(C(F)F)n2nc(C(=O)Nc3cc(Cl)ccc3C)nc2n1,inactive,–
CC1CCc2noc(NC(=O)c3ccccc3[N+](=O)[O-])c2C1 (configuration not stated),"inconclusive [inhibitor, single point]",–
C1=CCN(c2nc(N3CCOCC3)nc(N3CCCc4ccccc43)n2)CC1,active: 11.2 µM,–
CCCCOc1ccc(NC(=O)CCSc2nccn2C)cc1,"inconclusive [inhibitor, partial curve, poor fit]",–
CCCOc1ccccc1C(=O)N1CCCCC1CCN1CCOCC1 (configuration not stated),inactive,–
Cc1ccc(C(=O)N2CCC(Cc3ccccc3)CC2)cc1S(=O)(=O)N1CCOCC1,"inconclusive [inhibitor, partial curve, poor fit]",–
O=S1(=O)N(Cc2ccccc2F)CCCN1Cc1c(F)cccc1Cl,–,inconclusive: -80.3% [inhibitor]
COc1cc(OC)nc(-n2ncc(Br)c(Br)c2=O)n1,"inconclusive [inhibitor, full curve, poor fit]",–
COc1ccccc1Nc1nc(-c2cccc([N+](=O)[O-])c2)cs1,"inconclusive [inhibitor, partial curve, poor fit]",–
O=C(Nc1cccnc1)c1ccc(COc2cc(Cl)ccc2Cl)o1,inactive,–
CC(c1ccccc1)N1C(=O)C2C3C=CC(C4CC34)C2C1=O (configuration not stated),"inconclusive [inhibitor, full curve, poor fit]",–
CC(C)(C)c1cc(C(=O)N2CCc3ccccc3C2)ccn1,inactive,–
CCCc1cc(C(=O)N(C)CC(=O)Nc2ccc(OCC)c(OCC)c2)sc1C,"inconclusive [inhibitor, single point]",–
COC(=O)CCCNC(=O)OCc1ccc([N+](=O)[O-])cc1,inactive,–
CCc1cccc(C)c1NS(=O)(=O)c1cc(-c2cc(C)no2)ccc1C,"inconclusive [inhibitor, partial curve]",–
O=C(CCCc1c[nH]c2ccccc12)N1CCN(S(=O)(=O)c2cccs2)CC1,"inconclusive [inhibitor, partial curve, poor fit]",–
O=c1c2c(-c3ccccc3)csc2ncn1/N=C/c1cccc([N+](=O)[O-])c1O,"inconclusive [inhibitor, single point]",–

SMILES,Potency,"activity change, negative = inhibition"
c1ccc2c(Nc3nc4c(s3)CCCC4)cccc2c1,"inconclusive [inhibitor, single point]",–
CC(NC(=O)Cn1ccc2cc(S(=O)(=O)N3CCCCCC3)ccc21)c1ccccc1 (configuration not stated),"inconclusive [inhibitor, single point]",–
C=C(C)COc1ccc(-c2[nH]ncc2-c2ccccc2)c(O)c1,"inconclusive [inhibitor, partial curve, poor fit]",–
CC1=CC2C(C(O)CC3(C)C2CC(C)C32OCOC23COCO3)C2(C)C/C(=C\O)C(=O)C=C12 (configuration not stated),"inconclusive [inhibitor, full curve, poor fit]",–
O=S(=O)(c1ccc(F)cc1)c1nc(-c2ccco2)oc1Nc1ccc(F)cc1,"inconclusive [inhibitor, single point]",–
NC(=O)CC(NC(=O)c1cccc(Br)c1)c1ccc(N2CCN(c3ccc(F)cc3)CC2)c([N+](=O)[O-])c1 (configuration not stated),"inconclusive [inhibitor, partial curve, poor fit]",–
Cc1ccc(-c2nc3c(C)cc(Br)cn3c2Cc2cccc(F)c2)cc1,inactive,–
O=C(NC(=S)Nc1cccc(NC(=S)NC(=O)c2ccccc2)c1)c1ccccc1,"inconclusive [inhibitor, partial curve, poor fit]",–
Cc1ccccc1C(=O)N1CCC(C(=O)Nc2ccc(S(=O)(=O)N3C(C)CCCC3C)cc2)CC1 (configuration not stated),"inconclusive [inhibitor, single point]",–
Cc1ccc(-n2c(=O)c3c(n4cnnc24)-c2ccccc2CC32CCCCC2)cc1,"inconclusive [inhibitor, partial curve, poor fit]",–
CCOc1cc(CNS(=O)(=O)c2ccc3c(c2)C(C)(C)C(=O)N3)cc(OCC)c1OCC,inactive,–
Oc1c(CN2CCCC(C(F)(F)F)C2)cc(Cl)c2ccccc12 (configuration not stated),–,inconclusive: -51.6% [inhibitor]
COCOCCn1cc(CN2CCS(=O)(=O)N(Cc3ccc(-c4ccc(F)cc4)cc3)C(C(C)C)C2=O)nn1 (configuration not stated),"inconclusive [inhibitor, single point]",–
Cc1c(C(C)C)c(=O)n(-c2ccc(S(=O)(=O)NCc3ccccc3)cc2)n1C,inactive,–
CN(C(=O)COC(=O)c1cc2ccccc2cc1O)c1ccccc1,"inconclusive [inhibitor, partial curve, poor fit]",–
O=Cc1cn(-c2ccccc2)nc1-c1ccc2c(c1)OCCO2,"inconclusive [inhibitor, single point]",–
CCC1CCCCN1C(=O)c1c[nH]c2ccc(S(=O)(=O)N(C)c3ccc(Cl)cc3)cc2c1=O (configuration not stated),"inconclusive [inhibitor, partial curve, poor fit]",–
C=C(C)COc1ccc(-c2[nH]ncc2Oc2cccc(OC)c2)c(O)c1,active: 10 µM,–
Cc1ccc(Cn2c3ccccc3c3cnn(CC(=O)Nc4cc(Cl)ccc4C)c(=O)c32)cc1,inactive,–
Cc1ccc(C(=O)NNc2nc3ccccc3nc2C(F)(F)F)cc1,"inconclusive [inhibitor, partial curve, poor fit]",–
Cc1cc(C)c(NC(=O)Cn2c(=O)n(CCC(=O)N3CCc4ccccc4C3)c(=O)c3ccccc32)c(C)c1,inactive,–
CCN(CC)S(=O)(=O)c1ccc2c(c1)N(CC(=O)N1CCN(c3cccc(C)c3C)CC1)C(=O)CO2,"inconclusive [inhibitor, single point]",–
Clc1ccc(-n2ncc3c(NC4CCCC4)ncnc32)cc1,"inconclusive [inhibitor, full curve]",–

SMILES,Potency,"activity change, negative = inhibition"
C/C=C/c1ccc(OCCCCOc2ccccc2F)c(OC)c1,"inconclusive [inhibitor, single point]",–
CC(C)(C)c1ccc(C2CC2C(=O)N/N=C\c2ccc[nH]2)cc1 (configuration not stated),active: 1.12 µM,–
S=C(NCCc1ccccc1)Nc1ccccn1,"inconclusive [inhibitor, single point]",–
COc1ccc(Nc2ncnc3sc4c(c23)CCCC4)cc1,"inconclusive [inhibitor, single point]",–
CC(C)OCCCNC(=O)Cn1ncc2c(=O)oc3ccccc3c21,inactive,–
CCc1ccccc1NC(=S)N(CCCN1CCN(C)CC1)Cc1cccs1,"inconclusive [inhibitor, partial curve, poor fit]",–
O=C(NCc1ccccc1Cl)c1ccc(CS(=O)(=O)c2ccc(Br)cc2)o1,active: 10 µM,–
Cc1nc(NC(=O)C2CC2)sc1C(=O)Nc1ccc(Br)cc1,"inconclusive [inhibitor, full curve, poor fit]",–
CCc1c(-c2n[nH]c(=S)n2Cc2ccccc2)csc1C,"inconclusive [inhibitor, partial curve, poor fit]",–
CCOC(=O)C1CCN(C(=O)Cn2nc(CC)n3c(cc4sccc43)c2=O)CC1,"inconclusive [inhibitor, partial curve]",–
Cc1ccc(S(=O)(=O)N[C@H](C(=O)N2CCC(C(=O)N[C@@H](CC(=O)O)C(=O)O)CC2)C(C)C)cc1,inactive,–
O=C(COC(=O)c1ccccc1Br)NC(=O)NCc1ccccc1,"inconclusive [inhibitor, single point]",–
CCN(c1ccc(NC(=O)COC(=O)/C=C/c2cccs2)cc1)C(C)C,"inconclusive [inhibitor, single point]",–
CCn1nc(NS(=O)(=O)c2ccccc2)c2cc3cccc(C)c3nc21,inactive,–
COc1ccc(Cl)cc1C=CC=NNS(=O)(=O)c1ccc(C)cc1,"inconclusive [inhibitor, partial curve]",–
CCNC(=O)c1sc2cc(C)ccc2c1Cl,inactive,–
O=C(CSc1nnc(COc2ccc(Br)cc2)o1)N1CCOCC1,inactive,–
C=C(C)n1c(=O)n(Cc2ccc(C)cc2)c2ccccc21,"inconclusive [inhibitor, partial curve, poor fit]",–
CCN(CC)C(=O)c1ccc2c(c1)N(Cc1ccc(C(F)(F)F)cc1)C(=O)c1ccccc1S2,"inconclusive [inhibitor, single point]",–
CCOC(=O)c1[nH]c2cc(OC)c(OC)cc2c1NC(=O)C(C)N1CCN(Cc2ccccc2)CC1 (configuration not stated),"inconclusive [inhibitor, single point]",–
COc1ccccc1N1CCN(Cc2cn[nH]c2-c2ccc(F)cc2)CC1,inactive,–
